From article PMC10726135 come the findings set out here.

This is one part of the list. At the low end of the ranking the order means little. The protein was read in a cell extract, so binding may be indirect.

The experiment has as its target T1, HNF4alpha2 (COS-7 nuclear extract) (UniProt P41235).
T1 sequence: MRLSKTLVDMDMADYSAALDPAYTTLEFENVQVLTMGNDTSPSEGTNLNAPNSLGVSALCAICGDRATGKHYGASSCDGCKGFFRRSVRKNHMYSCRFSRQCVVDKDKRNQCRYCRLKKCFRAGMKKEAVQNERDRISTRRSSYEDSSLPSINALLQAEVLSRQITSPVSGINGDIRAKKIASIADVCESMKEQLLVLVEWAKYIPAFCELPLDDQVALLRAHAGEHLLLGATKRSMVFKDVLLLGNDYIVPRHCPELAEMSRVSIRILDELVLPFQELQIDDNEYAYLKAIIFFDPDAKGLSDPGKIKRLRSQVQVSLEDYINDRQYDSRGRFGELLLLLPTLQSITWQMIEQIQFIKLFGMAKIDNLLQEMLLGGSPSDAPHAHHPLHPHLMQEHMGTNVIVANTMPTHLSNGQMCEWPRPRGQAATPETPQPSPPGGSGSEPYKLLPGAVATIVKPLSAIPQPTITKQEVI
The experiment is described as follows: protein-binding microarray. Conditions: COS-7 nuclear extract on double-stranded Agilent 4x180k PBM; binding buffer, salt, pH and temperature not given; high values mean tight binding; double strand, one strand shown; sequences stand for … in …GCCTAGGGAGATTAGAGTATCGGTCGA
Consider ATCTCTAAGCTACTGAAAATGACCTTTGTT, for which the binding signal (log2 normalized intensity) came to 6.11.
For TCAAAGGTCAGAAAAAGCTGACGCCCCACC the value was 3.28.
As for TCCAGCCCCAGGCTGAGCGTGAACACCGGC, the binding signal (log2 normalized intensity) was -1.06.
For AAATAGAGAGCAGACAGGGGCTCAGCTGTC, the binding signal (log2 normalized intensity) was -1.18.
Take TCAGAAAGCAGAAGTTCTAGGAGCCTGGAC: the binding signal (log2 normalized intensity) is -1.16.
For TAAATACCATTAGGGGGCAATTTCCCTGGT the value was 0.585.
For TAAGCATAACTGGTTCAACCTGTTTCCACT the value was -1.11; for GACTTAGCACAGGAAAGGGCTTTGGGGACT, -0.873.
For TCCAAAGTATTTTCTGTCTAGGTGCCAGAA the value was 0.423.
GCAGCGCGGGGCTCAAAGGCGGCCCGGGTG: the binding signal (log2 normalized intensity) is -1.2.
For GGAGAGATAAGAAAAACTGAGCTTTAGATA the value was -1.16.
In the case of CACAGAAGCATGGATGAATGAGTTTCCAGA, the binding signal (log2 normalized intensity) is -0.499.
For GCTTGTCAGACAAGTTGCAGGGATGGACTT the value was 3.12; for CCCTCCCCCACCCGCGGTCCGTCCCTCCTG, 5.36.
With CCTGGACTCTAGAGCCAGACTAGTATTGAG, the binding signal (log2 normalized intensity) came to 0.877.
For CAGGATGGGCTCCTGCCTTGGAGAAGTGAA the value was -1.14.
For GCTATTTGCATCAGCAGAGGACAGAAGAAG the value was -1.18.
For TACACAAGCAATAGGGTTCGGTGCAATAAC the value was -1.07.
Take GGAAGTACTGCCCTTAACTCCCGGCACTCT: the binding signal (log2 normalized intensity) is -1.11.
For GTTGTTCCTTTTCTTTCACATACAAAATTT the value was 0.634; for TGGCCTTAGGGTGAGGCATCTGGACCATTG, 1.58; for CCTCAGGCCTTTGGACCCAGACTGAATCAC, 2.64.
Take AGAGAAACCTGGCTGCGAGTCCCTGCTGTG: the binding signal (log2 normalized intensity) was -1.17.
Regarding AATTTGATCCAGTGTGCAAATGTGTCTTTT, the binding signal (log2 normalized intensity) was 1.68.
For ATAGGAGGATTTTATTCAGGTGGCCACTGG the value was 1.03; for ACCTAGAGGCCTTTCTCTCTGCACGAAAAA, -1.04.
For GACCCGTGAATCCTTAAGATTCCTGCTCTA the value was -1.16; for TTTCAACATTTAACTTAACCACTCAATCAG, -1.18.
Turning to TGCAGGGATGGACTTTAATCTCCAAGTAAC, the binding signal (log2 normalized intensity) stood at 4.59.
For ACGGGTAAATCCGGTTTGGGGACTTCTCCC the value was -0.756; for CGGGGGCAAGGGTCAGAGTAAAGCTCCAGT, 3.73; for AGGGAGGGGAGAGGGGGTTAAAGGTTATTT, 4.97.
For TTGGCCTGTTTGCTGAAGGCCATGCATGGT the value was 0.988.
CTGGGGTTAGCCAAACAAATGGAGAAGGTC: the binding signal (log2 normalized intensity) is 0.627.
For AATGAAAGGTTAACCTGCTGGTTTACAACA the value was -0.835; for AGTTGCTCAAACCAACATTATTAGCAGCAG, -1.18; for TATGTTAATGGCAGAATCAAAGGTCAAAAT, 4.54.
With TTGCTATGCAAACAGACTGGCGGCGTTTCG, the binding signal (log2 normalized intensity) is -1.17.
With CTGGTGTAGTGGGGAGGGCATGGACTTTGG, the binding signal (log2 normalized intensity) amounted to 5.45.
Regarding GAGAGGACTACAGGCCCTGCATTTTTAGGC, the binding signal (log2 normalized intensity) is -1.12.
For GCGCAAACTATCTAAACAGACTAGTACAAC the value was -0.962; for GCCCTGAGCCAAGGGAGCACAACCCGGGCG, -1.06.
As to TTAAGATGATATAGCTGTTCATTAGACTCA, the binding signal (log2 normalized intensity) worked out at 0.162.
In the case of CTTTCCTGGTGCCTCCTTATCTCCCCAACT, the binding signal (log2 normalized intensity) came out at 3.39.
As to GCCAATCTGCTTAAAGGCAAAGTCCAGAAC, the binding signal (log2 normalized intensity) is 3.82.
Turning to CAGTCATGGAGGCATCATAAACTCCAACTC, the binding signal (log2 normalized intensity) was -0.992.
In the case of AAGCCTTTGAACTGTGTTGCAAATTATTAC, the binding signal (log2 normalized intensity) amounted to 0.444.
For CCTGGTAAGTTCCACTGCATCAGTGCTGAC the value was -1.12; for GGAGTCCAGAGTTCAGGTAGAGGGATTCCC, 1.68; for GACGATGGTTTTCCAATCTGGTGAAAGATG, 1.05.
For GTCAACTCCTCCAAGCCACCTTCCCGGCCT the value was -0.918; for GACTGCAAAATAGACAAACAGCAATAGCAA, -1.15.
For GGCTTCCATTCTCAGGCAGATGGGCAGCAC the value was -1.27.
With AGGGAGGTAGTCGCCCTCCGTCGTGGCCTG, the binding signal (log2 normalized intensity) was -1.09.
For GGTAAAATAAGGCTGCGACCTGCTGGGCTG the value was -1.03; for TCCAGAAAGCAACAAAAACCAAATCACAAT, -1.12.
For CTGGAGATAATAGTGGCTGAAAGTACTGGC the value was -0.923.
For GGGCACTGCCCTTTGGAACCTGCCCTCTGT the value was 4.63.
For the sequence ATGCCCGGCCGACGTGACCCGCCGCCCGAG, the binding signal (log2 normalized intensity) is 1.38.
For TGGGTATAGGCGCGCGTGTGTGTGTGTGTG the value was 3.14; for TCCAGAAATACTTGTTATATTGGATAGTGC, 0.997.
Turning to AGATGGTCAGTGAACTGTGGTTGACAGGCA, the binding signal (log2 normalized intensity) was 1.36.
As to TACCCTACCTGTTTGCAAGCCCAAAGCCCC, the binding signal (log2 normalized intensity) was 2.55.
As to GCATTCCAAGTGAGTAAGGAAAGCCACTTC, the binding signal (log2 normalized intensity) was -1.13.
For CATGCCAGGATGGGCTCCTGCCTTGGAGAA the value was -1.11.
As to TCAGCCTGCAAGTTAGGACAGCCCCAGGCC, the binding signal (log2 normalized intensity) is -1.03.
For GCCTGCCCTTCGCTCCCCGACCTCCTGCTG the value was 2.42; for AAATTCCGGGGCTGGAATTTGAACCCAAGC, 5.71.
For CTGAGTATTATCTTTTTAATCAATAATCTT the value was 1.01; for GTGTATCAATGGCCCCAGTGCACGTGCATG, 1.12.
For CACTGCCCATCCCCACTGAAAGTGTGTTAA the value was 1.93; for TATTGGAAGAATGGAATTGCCATTGACTGA, 0.347.
For the sequence ATCGAAAATCCCCCACCATTGTTATCTGAT, the binding signal (log2 normalized intensity) turned out to be 2.78.
